The record followed here is a collection of fitness landscapes (doi:10.1016/j.celrep.2020.107928).

First the molecules themselves.
B1: Caulobacter ParB omega fusion; a variant is named by its letters at X, in order, B8GW30 (parent)
chain: MESVVVGEPGMSEGRRGLGRGLSALLGEVDAAPAQAPGEQLGGSREAPIEILQRNPDQPRRTFREEDLEDLSNSIREKGVLQPILVRPSPDTAGEYQIVAGERAWRAAQRAGLKTVPIMVRELDDLAVLEIGIIENVQRADLNVLEEALSYKVLMEKFERTQENIAQTIGKSXSHVANXMRLLXLPDEVQSYLVSGELTAXHARAIAAAADPVALAKQIIEGGLSVRETEALARKAPNLSAGKSKGGRPPRVKDTDTQALESDLSSVLGLDVSIDHRGSTGTLTITYATLEQLDDLCNRLTRGI

The full ranking holds about 81,000 sequences; the median of “one-hybrid fitness for binding NBS DNA” is about -0.1, and the highest 2% start at about 0.36. This is one part of the list. Where only a bound is given, the exact number is not on record here.

In the assay the parent is B1. The assay can be described thus: one-hybrid fitness for binding NBS DNA (the Noc-binding site; scaled: cognate 1, non-cognate 0); higher = stronger binding. The conditions noted are these: with NBS DNA site. An outline of the steps:
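Fitness is the rescaled log change in variant-to-wild-type read ratio, measured by Illumina sequencing of plasmids before and after bacterial one-hybrid selection. The scale puts cognate at 1 and non-cognate at 0. Selection of Caulobacter ParB libraries, four specificity codons randomised, took place in E. coli USO with a HIS3 reporter, site 19 bp from the promoter, over 48 hours at 37°C on M9-minus-histidine with 0.1 mM IPTG and 5 mM 3-AT.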
In the case of FAET, the “one-hybrid fitness for binding NBS DNA” value was not above 0.2.

For the variant WMIC, the “one-hybrid fitness for binding NBS DNA” value is not above 0.2.

As to RISP, the “one-hybrid fitness for binding NBS DNA” value is not above 0.2.

For KDPV, the “one-hybrid fitness for binding NBS DNA” value is not above 0.2.

With IQTA, the “one-hybrid fitness for binding NBS DNA” value is not above 0.2.

Take FRSR: the “one-hybrid fitness for binding NBS DNA” value was not above 0.2.

Take SVPN: the “one-hybrid fitness for binding NBS DNA” value was not above 0.2.

On to EALY, for which the “one-hybrid fitness for binding NBS DNA” value was not above 0.2.

Turning to NSEC, the “one-hybrid fitness for binding NBS DNA” value was not above 0.2.

Regarding EAPK, the “one-hybrid fitness for binding NBS DNA” value is not above 0.2.

For CTYC, the “one-hybrid fitness for binding NBS DNA” value is not above 0.2.

In the case of QCCS, the “one-hybrid fitness for binding NBS DNA” value turned out to be 0.393.

On to FRVS, for which the “one-hybrid fitness for binding NBS DNA” value was not above 0.2.

Take VQYS: the “one-hybrid fitness for binding NBS DNA” value was not above 0.2.

For the variant ESGK, the “one-hybrid fitness for binding NBS DNA” value was not above 0.2.

As for EMLW, the “one-hybrid fitness for binding NBS DNA” value was not above 0.2.

Take INVG: the “one-hybrid fitness for binding NBS DNA” value was not above 0.2.

Regarding EAKA, the “one-hybrid fitness for binding NBS DNA” value is not above 0.2.

In the case of GVAP, the “one-hybrid fitness for binding NBS DNA” value is not above 0.2.

As for INHS, the “one-hybrid fitness for binding NBS DNA” value is not above 0.2.

Turning to SNPL, the “one-hybrid fitness for binding NBS DNA” value is not above 0.2.

For LGYE, the “one-hybrid fitness for binding NBS DNA” value is not above 0.2.

With LCPR, the “one-hybrid fitness for binding NBS DNA” value was not above 0.2.

With TEMF, the “one-hybrid fitness for binding NBS DNA” value was not above 0.2.

CTSK: the “one-hybrid fitness for binding NBS DNA” value was not above 0.2.

Consider PGLN, for which the “one-hybrid fitness for binding NBS DNA” value is not above 0.2.

Consider SRMR, for which the “one-hybrid fitness for binding NBS DNA” value was not above 0.2.

For TSYH, the “one-hybrid fitness for binding NBS DNA” value is not above 0.2.

On to KIRS, for which the “one-hybrid fitness for binding NBS DNA” value was not above 0.2.

For the variant CGPA, the “one-hybrid fitness for binding NBS DNA” value was not above 0.2.

In the case of WFSI, the “one-hybrid fitness for binding NBS DNA” value is not above 0.2.

QTPS: the “one-hybrid fitness for binding NBS DNA” value was found to be 0.314.

For the variant KQQT, the “one-hybrid fitness for binding NBS DNA” value is not above 0.2.

As to QFVQ, the “one-hybrid fitness for binding NBS DNA” value was not above 0.2.

On to PMCS, for which the “one-hybrid fitness for binding NBS DNA” value is not above 0.2.

Take WSSA: the “one-hybrid fitness for binding NBS DNA” value is not above 0.2.

Consider QSNH, for which the “one-hybrid fitness for binding NBS DNA” value came out at 0.273.

In the case of QSEW, the “one-hybrid fitness for binding NBS DNA” value is not above 0.2.

For HMTV, the “one-hybrid fitness for binding NBS DNA” value was not above 0.2.

For the variant DTFS, the “one-hybrid fitness for binding NBS DNA” value was not above 0.2.

In the case of PCQN, the “one-hybrid fitness for binding NBS DNA” value was not above 0.2.

For the variant HVFC, the “one-hybrid fitness for binding NBS DNA” value is not above 0.2.

Regarding NHLL, the “one-hybrid fitness for binding NBS DNA” value is not above 0.2.

With DTDR, the “one-hybrid fitness for binding NBS DNA” value was not above 0.2.

Take EMRR: the “one-hybrid fitness for binding NBS DNA” value came to 0.21.

In the case of KPVD, the “one-hybrid fitness for binding NBS DNA” value is not above 0.2.

Consider GWWT, for which the “one-hybrid fitness for binding NBS DNA” value was not above 0.2.

On to AHYE, for which the “one-hybrid fitness for binding NBS DNA” value was not above 0.2.

As for RSVA, the “one-hybrid fitness for binding NBS DNA” value was not above 0.2.

Take PGQD: the “one-hybrid fitness for binding NBS DNA” value was not above 0.2.

Consider DQWV, for which the “one-hybrid fitness for binding NBS DNA” value was not above 0.2.

Take RNAA: the “one-hybrid fitness for binding NBS DNA” value was not above 0.2.

Turning to PWYC, the “one-hybrid fitness for binding NBS DNA” value is not above 0.2.

As for NGPR, the “one-hybrid fitness for binding NBS DNA” value is not above 0.2.

With QNVW, the “one-hybrid fitness for binding NBS DNA” value is not above 0.2.

In the case of KSRG, the “one-hybrid fitness for binding NBS DNA” value is not above 0.2.

On to TFGN, for which the “one-hybrid fitness for binding NBS DNA” value is not above 0.2.

With SNRK, the “one-hybrid fitness for binding NBS DNA” value was not above 0.2.

Consider WVQG, for which the “one-hybrid fitness for binding NBS DNA” value is not above 0.2.

Regarding CHRG, the “one-hybrid fitness for binding NBS DNA” value was not above 0.2.

As for FGNR, the “one-hybrid fitness for binding NBS DNA” value is not above 0.2.

Take KWYS: the “one-hybrid fitness for binding NBS DNA” value was not above 0.2.

With QWYM, the “one-hybrid fitness for binding NBS DNA” value was not above 0.2.

With PPHT, the “one-hybrid fitness for binding NBS DNA” value was not above 0.2.

Turning to QRAA, the “one-hybrid fitness for binding NBS DNA” value stood at 0.617.

Consider VSNI, for which the “one-hybrid fitness for binding NBS DNA” value was not above 0.2.

As to TVHR, the “one-hybrid fitness for binding NBS DNA” value is not above 0.2.

Consider YMDR, for which the “one-hybrid fitness for binding NBS DNA” value is not above 0.2.

With PPRE, the “one-hybrid fitness for binding NBS DNA” value was not above 0.2.

Turning to YLMR, the “one-hybrid fitness for binding NBS DNA” value was not above 0.2.

With ESKT, the “one-hybrid fitness for binding NBS DNA” value is not above 0.2.

Turning to AVYK, the “one-hybrid fitness for binding NBS DNA” value is not above 0.2.

For the variant QYWV, the “one-hybrid fitness for binding NBS DNA” value is not above 0.2.

In the case of CSDS, the “one-hybrid fitness for binding NBS DNA” value is not above 0.2.

For CRLG, the “one-hybrid fitness for binding NBS DNA” value was not above 0.2.

Regarding RKGI, the “one-hybrid fitness for binding NBS DNA” value was not above 0.2.

For PPPK, the “one-hybrid fitness for binding NBS DNA” value is not above 0.2.
